{"source": "the supplement of paper PMC10126150", "note": "Sequences with one replicate were seen in a single cluster, so their values are uncertain.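 Further: ATP exposure 15 min at 22 °C before imaging.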", "data": [{"test_system": "ATP", "assay": "switch fluorescence ratio, 500 uM ATP over buffer (Cy3 cluster intensity, sum of 5 cycles each) (fold (ratio)); higher = stronger signal-on switching upon ATP binding; sequences stand for … in TCGTCGGCAGCGTCAGATGTGTATAAGAGACAGTTTTTTTTTTTTTTTTTTTTTTTTT…TC", "details": "aptamer strand: ATP DNA aptamer (quencher-CACCTGGGGGAGTATTGCGGAGGAAGG + anchor), 100 nM annealed; ATP concentration: 500 uM; one replicate", "outline": "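Cy3-labelled switching-strand clusters on a modified Illumina MiSeq flow-cell were annealed to 100 nM quencher-labelled ATP aptamer, imaged in selection buffer, then imaged after 15 min with 500 uM ATP at 22 °C. Five buffer/ATP cycles ran, with NaOH stripping and re-annealing between them. The fluorescence ratio is summed target-cycle over summed buffer-cycle Cy3 intensity per cluster, averaged per switch-domain sequence. Clusters outside 100-1000 RFU were excluded.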", "values": [{"sequence": "TAGTGTCGGC", "switch fluorescence ratio": 0.992}, {"sequence": "TAGTGTTCCT", "switch fluorescence ratio": 0.989}, {"sequence": "TAGTGTTCTT", "switch fluorescence ratio": 0.957}, {"sequence": "TAGTGTTTGC", "switch fluorescence ratio": 0.972}, {"sequence": "TAGTTAATTA", "switch fluorescence ratio": 1}, {"sequence": "TAGTTATGTA", "switch fluorescence ratio": 0.986}, {"sequence": "TAGTTATTT", "switch fluorescence ratio": 1.01}, {"sequence": "TAGTTCCATC", "switch fluorescence ratio": 1.01}, {"sequence": "TAGTTCGC", "switch fluorescence ratio": 0.986}, {"sequence": "TAGTTGATCC", "switch fluorescence ratio": 1.01}, {"sequence": "TAGTTGCATG", "switch fluorescence ratio": 1.01}, {"sequence": "TAGTTGGACG", "switch fluorescence ratio": 0.974}, {"sequence": "TAGTTTTCCA", "switch fluorescence ratio": 0.977}, {"sequence": "TAGTTTTCTA", "switch fluorescence ratio": 1}, {"sequence": "TATAAATCGC", "switch fluorescence ratio": 0.963}, {"sequence": "TATAACTGGG", "switch fluorescence ratio": 0.953}, {"sequence": "TATAACTTCC", "switch fluorescence ratio": 2.52}, {"sequence": "TATAAGAAC", "switch fluorescence ratio": 1.05}, {"sequence": "TATAAGCTGT", "switch fluorescence ratio": 1.02}, {"sequence": "TATAATTCGG", "switch fluorescence ratio": 1}, {"sequence": "TATAATTTGG", "switch fluorescence ratio": 0.966}, {"sequence": "TATACACTAA", "switch fluorescence ratio": 1.22}, {"sequence": "TATACGCAGA", "switch fluorescence ratio": 1.25}, {"sequence": "TATACGCAGG", "switch fluorescence ratio": 1.12}, {"sequence": "TATACTATAT", "switch fluorescence ratio": 1.04}, {"sequence": "TATACTTGAC", "switch fluorescence ratio": 1.16}, {"sequence": "TATACTTGAT", "switch fluorescence ratio": 0.968}, {"sequence": "TATACTTGGG", "switch fluorescence ratio": 0.977}, {"sequence": "TATAGAACAC", "switch fluorescence ratio": 1.06}, {"sequence": "TATAGATTT", "switch fluorescence ratio": 0.996}, {"sequence": "TATAGCCAAC", "switch fluorescence ratio": 1.05}, {"sequence": "TATAGGACTT", "switch fluorescence ratio": 1.06}, {"sequence": "TATAGGCCA", "switch fluorescence ratio": 1.01}, {"sequence": "TATAGGGATA", "switch fluorescence ratio": 0.979}, {"sequence": "TATAGGGCAG", "switch fluorescence ratio": 1.01}, {"sequence": "TATAGGGG", "switch fluorescence ratio": 0.99}, {"sequence": "TATAGTGGTA", "switch fluorescence ratio": 1.04}, {"sequence": "TATAGTTTGG", "switch fluorescence ratio": 1.01}, {"sequence": "TATATAGTGC", "switch fluorescence ratio": 0.946}, {"sequence": "TATATCCAAG", "switch fluorescence ratio": 1.01}, {"sequence": "TATATCGTTT", "switch fluorescence ratio": 1.02}, {"sequence": "TATATGACAA", "switch fluorescence ratio": 1.02}, {"sequence": "TATATTAACT", "switch fluorescence ratio": 1.07}, {"sequence": "TATATTACCG", "switch fluorescence ratio": 1.05}, {"sequence": "TATATTACTC", "switch fluorescence ratio": 1.05}, {"sequence": "TATATTATGG", "switch fluorescence ratio": 0.99}, {"sequence": "TATATTCAA", "switch fluorescence ratio": 0.995}, {"sequence": "TATATTGATT", "switch fluorescence ratio": 0.968}, {"sequence": "TATATTTATA", "switch fluorescence ratio": 1.01}, {"sequence": "TATCAACCCC", "switch fluorescence ratio": 1.04}, {"sequence": "TATCAAGTAT", "switch fluorescence ratio": 1}, {"sequence": "TATCAATTAA", "switch fluorescence ratio": 0.994}, {"sequence": "TATCAGGGTT", "switch fluorescence ratio": 0.985}, {"sequence": "TATCATCCAG", "switch fluorescence ratio": 0.964}, {"sequence": "TATCATCTAT", "switch fluorescence ratio": 1.02}, {"sequence": "TATCATGGGC", "switch fluorescence ratio": 1.06}, {"sequence": "TATCATTTGA", "switch fluorescence ratio": 0.943}, {"sequence": "TATCCAGTAC", "switch fluorescence ratio": 1.18}, {"sequence": "TATCCATATG", "switch fluorescence ratio": 1.02}, {"sequence": "TATCCATCTT", "switch fluorescence ratio": 0.966}, {"sequence": "TATCCCTTG", "switch fluorescence ratio": 0.993}, {"sequence": "TATCCGCGTT", "switch fluorescence ratio": 2.23}, {"sequence": "TATCCGCTGT", "switch fluorescence ratio": 3.24}, {"sequence": "TATCGATTAA", "switch fluorescence ratio": 1.12}, {"sequence": "TATCGCTGCT", "switch fluorescence ratio": 1.04}, {"sequence": "TATCGGGCTA", "switch fluorescence ratio": 1.02}, {"sequence": "TATCGGTGAA", "switch fluorescence ratio": 0.955}, {"sequence": "TATCGTGGGC", "switch fluorescence ratio": 1.01}, {"sequence": "TATCTAGTG", "switch fluorescence ratio": 1}, {"sequence": "TATCTCAGAT", "switch fluorescence ratio": 0.985}, {"sequence": "TATCTCCGAG", "switch fluorescence ratio": 1.19}, {"sequence": "TATCTCGGT", "switch fluorescence ratio": 1.05}, {"sequence": "TATCTGCTCA", "switch fluorescence ratio": 0.966}, {"sequence": "TATCTTTACT", "switch fluorescence ratio": 0.975}, {"sequence": "TATGAACCCC", "switch fluorescence ratio": 1.25}, {"sequence": "TATGACCTC", "switch fluorescence ratio": 1.01}, {"sequence": "TATGACGCTT", "switch fluorescence ratio": 1.19}, {"sequence": "TATGACTTCC", "switch fluorescence ratio": 2.59}, {"sequence": "TATGATGAGT", "switch fluorescence ratio": 1.05}, {"sequence": "TATGATGCGC", "switch fluorescence ratio": 0.989}, {"sequence": "TATGCATGTT", "switch fluorescence ratio": 1.05}, {"sequence": "TATGCCAGAC", "switch fluorescence ratio": 1.08}, {"sequence": "TATGCCGTAG", "switch fluorescence ratio": 0.995}, {"sequence": "TATGCCTGAA", "switch fluorescence ratio": 0.978}, {"sequence": "TATGCCTGGA", "switch fluorescence ratio": 1.03}, {"sequence": "TATGCGATCA", "switch fluorescence ratio": 1.04}, {"sequence": "TATGCGGGAA", "switch fluorescence ratio": 0.885}, {"sequence": "TATGCTCCGA", "switch fluorescence ratio": 1.07}, {"sequence": "TATGCTGCGG", "switch fluorescence ratio": 1}, {"sequence": "TATGCTTGGA", "switch fluorescence ratio": 0.961}, {"sequence": "TATGGACTCT", "switch fluorescence ratio": 0.998}, {"sequence": "TATGGAGCCC", "switch fluorescence ratio": 1.08}, {"sequence": "TATGGAGCG", "switch fluorescence ratio": 0.907}, {"sequence": "TATGGCCGCT", "switch fluorescence ratio": 0.991}, {"sequence": "TATGGCTATT", "switch fluorescence ratio": 1.01}, {"sequence": "TATGGCTT", "switch fluorescence ratio": 0.987}, {"sequence": "TATGGGACAG", "switch fluorescence ratio": 0.954}, {"sequence": "TATGGGGACT", "switch fluorescence ratio": 1.01}, {"sequence": "TATGGGGCGT", "switch fluorescence ratio": 1.01}, {"sequence": "TATGGGTCGA", "switch fluorescence ratio": 0.97}, {"sequence": "TATGGGTGTT", "switch fluorescence ratio": 0.931}, {"sequence": "TATGGTACGA", "switch fluorescence ratio": 1.01}, {"sequence": "TATGGTGCAA", "switch fluorescence ratio": 1.02}, {"sequence": "TATGGTTTTA", "switch fluorescence ratio": 0.982}, {"sequence": "TATGTAAACG", "switch fluorescence ratio": 1.05}, {"sequence": "TATGTAAGT", "switch fluorescence ratio": 0.955}, {"sequence": "TATGTAGAAA", "switch fluorescence ratio": 1.02}, {"sequence": "TATGTAGTTA", "switch fluorescence ratio": 1.08}, {"sequence": "TATGTCAGGG", "switch fluorescence ratio": 0.995}, {"sequence": "TATGTCATCA", "switch fluorescence ratio": 0.968}, {"sequence": "TATGTCTTTG", "switch fluorescence ratio": 1.04}, {"sequence": "TATGTGCATG", "switch fluorescence ratio": 1.02}, {"sequence": "TATGTTGAAA", "switch fluorescence ratio": 0.984}, {"sequence": "TATTAAAATG", "switch fluorescence ratio": 0.969}, {"sequence": "TATTAACTCG", "switch fluorescence ratio": 0.964}, {"sequence": "TATTAATCGT", "switch fluorescence ratio": 0.983}, {"sequence": "TATTAATTA", "switch fluorescence ratio": 0.937}, {"sequence": "TATTACCTCG", "switch fluorescence ratio": 0.975}, {"sequence": "TATTAGCCCC", "switch fluorescence ratio": 1.04}, {"sequence": "TATTATTCGA", "switch fluorescence ratio": 1.04}, {"sequence": "TATTCAAAAG", "switch fluorescence ratio": 0.98}, {"sequence": "TATTCAAGAT", "switch fluorescence ratio": 1.01}, {"sequence": "TATTCAATCT", "switch fluorescence ratio": 1.02}, {"sequence": "TATTCACTTA", "switch fluorescence ratio": 1.02}, {"sequence": "TATTCAGGCT", "switch fluorescence ratio": 1.05}, {"sequence": "TATTCGATCA", "switch fluorescence ratio": 0.992}, {"sequence": "TATTCTCGCT", "switch fluorescence ratio": 1.23}, {"sequence": "TATTCTTTCC", "switch fluorescence ratio": 1.21}, {"sequence": "TATTGACCGA", "switch fluorescence ratio": 1.06}, {"sequence": "TATTGATGTA", "switch fluorescence ratio": 0.938}, {"sequence": "TATTGCCCGA", "switch fluorescence ratio": 0.976}, {"sequence": "TATTGCCTCG", "switch fluorescence ratio": 1.02}, {"sequence": "TATTGCGGAC", "switch fluorescence ratio": 1.03}, {"sequence": "TATTGCGGGT", "switch fluorescence ratio": 1}, {"sequence": "TATTGGAGAA", "switch fluorescence ratio": 1.01}, {"sequence": "TATTGGGAGT", "switch fluorescence ratio": 0.975}, {"sequence": "TATTGGGCTC", "switch fluorescence ratio": 0.937}, {"sequence": "TATTGTAGAT", "switch fluorescence ratio": 1.03}, {"sequence": "TATTGTATTT", "switch fluorescence ratio": 1.02}, {"sequence": "TATTGTTCGT", "switch fluorescence ratio": 0.978}, {"sequence": "TATTTAAATG", "switch fluorescence ratio": 1.03}, {"sequence": "TATTTAATCT", "switch fluorescence ratio": 0.993}, {"sequence": "TATTTACAAT", "switch fluorescence ratio": 1.04}, {"sequence": "TATTTACCTT", "switch fluorescence ratio": 1.09}, {"sequence": "TATTTCCTGA", "switch fluorescence ratio": 1.05}, {"sequence": "TATTTCGACC", "switch fluorescence ratio": 1.05}, {"sequence": "TATTTCGCGC", "switch fluorescence ratio": 1.14}, {"sequence": "TATTTCGTCA", "switch fluorescence ratio": 0.99}, {"sequence": "TATTTCTGGT", "switch fluorescence ratio": 0.935}, {"sequence": "TATTTGCCA", "switch fluorescence ratio": 1.02}, {"sequence": "TATTTGCGAT", "switch fluorescence ratio": 1.04}, {"sequence": "TATTTTACAA", "switch fluorescence ratio": 1.01}, {"sequence": "TATTTTACGG", "switch fluorescence ratio": 1.01}]}]}
